Tests used:
[1] = biological target: T1, hPD-L2 (Homo sapiens, UniProt Q9BQ51); assay: ELISA specificity test against biotinylated control protein hPD-L2; format: binding; details: control protein added at 8 nM
T1 construct: purchased R&D Systems 1224-PL-100
T1 sequence (Q9BQ51 20-273): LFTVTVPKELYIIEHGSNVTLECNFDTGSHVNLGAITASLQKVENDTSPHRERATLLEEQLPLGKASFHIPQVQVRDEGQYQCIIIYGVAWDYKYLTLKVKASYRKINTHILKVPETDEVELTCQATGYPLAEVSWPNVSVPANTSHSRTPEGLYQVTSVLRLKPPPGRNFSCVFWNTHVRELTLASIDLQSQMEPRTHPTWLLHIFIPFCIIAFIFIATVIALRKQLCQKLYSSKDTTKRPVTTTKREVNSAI
Procedure: (§1) The binding of Z variants to hPD-L1 was analyzed in ELISA assays. Half-area 96-well ELISA plates (Costar, cat. no. 3690) were coated at 4° C. overnight with 2 μg/ml of an anti-ABD goat antibody (produced in-house) diluted in coating buffer (50 mM sodium carbonate, pH 9.6; Sigma, cat. no. C3041). The antibody solution was poured off and the wells were washed in water and blocked with 100 μl of PBSC (PBS supplemented with 0.5% casein; Sigma, cat. no. C8654) for 1 to 3 h at RT. The blocking solution was discarded and 50 μl periplasmic solutions, diluted 1:1 with PBST 0.05%, were added to the wells and incubated for 1.5 to 2.5 h at RT under slow agitation. As a blank control, PBST 0.05% was added instead of a periplasmic sample. The supematants were poured off and the wells were washed 4 times with PBST 0.05%. Then, 50 μl of biotinylated hPD-L1 at a concentration of 0.32 nM in PBSC was added to each well. The plates were incubated for 1.0 h at RT followed by washes as described above. Streptavidin conjugated HRP (Thermo Scientific, cat no. N100) diluted 1:30,000 in PBSC, was added to the wells and the plates were incubated for approximately 1 h. After washing as described above, 50 μl ImmunoPure TMB substrate (Thermo Scientific, cat no. 34021) was added to the wells and the plates were treated according to the manufacturers recommendations. The absorbance at 450 nm was measured using a multi-well plate reader, Victor^3 (Perkin Elmer).
(§2) A selection of PD-L1 binding Z variants was subjected to an analysis of the response against a dilution series of biotinylated hPD-L1 following the procedure described above. The Z variants, Z13166 (SEQ ID NO:1), Z13359 (SEQ ID NO:3) and Z13398 (SEQ ID NO:4) were diluted 1:1 in PBST 0.05% and biotinylated hPD-L1 was added at a concentration of 40 nM and diluted stepwise 1:4 down to 32 μM. […] Data were analyzed using GraphPad Prism 5 and non-linear regression and EC50 values (the half maximal effective concentration) were calculated.

[2] = biological target: T2, hPD-L1 (Homo sapiens, UniProt Q9NZQ7); assay: ELISA titration (EC50 analysis) against biotinylated hPD-L1; format: binding; details: FIG. 2; periplasm samples
T2 construct: purchased R&D Systems 156-B7-100
T2 sequence (Q9NZQ7 19-239 limits assumed): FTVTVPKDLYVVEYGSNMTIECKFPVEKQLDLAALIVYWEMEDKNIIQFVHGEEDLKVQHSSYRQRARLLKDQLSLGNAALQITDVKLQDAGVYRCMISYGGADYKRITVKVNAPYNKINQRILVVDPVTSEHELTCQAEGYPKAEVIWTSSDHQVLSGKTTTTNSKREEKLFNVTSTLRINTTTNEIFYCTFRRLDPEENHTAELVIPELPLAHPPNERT
Procedure: as §1, §2

[3] = biological target: T2, hPD-L1; assay: Biacore kinetic analysis on immobilized hPD-L1; format: binding; details: His6-tagged Z variants; approximate, based on 5 and 50 nM injected; 1:1 interaction model
Procedure: Kinetic constants (ka and kd) and affinities (KD) for hPD-L1 were determined for the His6-tagged Z variants Z13166 (SEQ ID NO:1), Z13178 (SEQ ID NO:2), Z13359 (SEQ ID NO:3) and Z13398 (SEQ ID NO:4) using a Biacore 2000 instrument (GE Healthcare). All four Z variants were also tested for binding against the sequence-related proteins hPD-L2, hB7-H3, hB7-H4. Z13166 and Z13398 were further analyzed against mPD-L1 (mouse PD-L1 Fc Chimera, R&D Systems, cat. no. 1019-B7) and Z13178 and Z13359 were analyzed against rhesus monkey PD-L1 (RhPD-L1; rhesus PD-L1/Fc Chimera, Sino Biological Inc., cat. no. 90251-C02H)
hPD-L1, hPD-L2, hB7-H3, hB7-H4, mPD-L1 and RhPD-L1 were immobilized in separate flow cells on the carboxylated dextran layer of different CM5 chip surfaces (GE Healthcare, cat. no. BR100012). The immobilization was performed using amine coupling chemistry according to the manufacturers protocol and using HBS-EP (0.01 M HEPES pH 7.4, 0.15 M NaCl, 3 mM EDTA, 0.005% v/v Surfactant P20, GE Healthcare, cat. no. BR100188) as running buffer. In a first set of experiments, in which Z13166 and Z13398 were analyzed, the ligand immobilization levels on the surfaces were 468-894 RU for hPD-L1, 482 RU for mPD-L1, 537-742 RU for hPD-L2, 383 RU for hB7-H3, and 538-659 RU for hB7-H4. One flow cell surface on each chip was activated and deactivated for use as blank during analyte injections. In the kinetic experiment, HBS-EP was used as running buffer and the flow rate was 50 μl/min. The analytes, i.e. the Z variants, were each diluted in HBS-EP buffer within a concentration range of 1000 to 0.01 nM and injected for 5 min, followed by dissociation in running buffer for 15-25 min. After dissociation, the surfaces were regenerated with one or two injections of 0.1% SDS. Kinetic constants were calculated from the sensorgrams using the Langmuir 1:1 model of BiaEvaluation software 4.1 (GE Healthcare). In a second set of experiments, in which Z13178 and Z13359 were analyzed, the ligand immobilization levels on the surfaces were 1030 RU for hPD-L1, 1060 RU for RhPD-L1, 1070 RU for hPD-L2, 1090 RU for hB7-H3, and 770 RU for hB7-H4. Analyses were performed essentially as described above for the first set of experiments, but using a flow rate of 30 μl/min and the Z variants were injected at concentrations of 5 and 50 nM over chips immobilized with hPD-L1 and RhPD-L1, and at a concentration of 500 nM over immobilized hPD-L2, hB7-H3 and hB7-H4,

[4] = test system: IgG-Fc; assay: ELISA specificity test against biotinylated control protein IgG-Fc; format: binding, human; details: control protein added at 8 nM
Procedure: as §1, §2

Substance | response against hPD-L2 in ELISA [1] | binding to hPD-L1 in ELISA [2] | Kd [3] | ka (1/Ms) hPD-L1 [3] | kd (1/s) hPD-L1 [3] | response against IgG-Fc in ELISA [4]
Z13166: PD-L1 binding Z variant, 58 amino acid residues, SEQ ID NO:1; tested as ABD fusion or His6-tagged (VDAKYAKERTVAVWEIVQLPNLTAWQKGAFINKLHDDPSQSSELLSEAKKLNDSQAPK; Engineered PD-L1 binding polypeptide) | no response | bind | 0.4 nM | 7.4e+06 M⁻¹ s⁻¹ | 0.0026 s⁻¹ | no response
Z13359: PD-L1 binding Z variant, 58 amino acid residues, SEQ ID NO:3; tested as ABD fusion or His6-tagged (VDAKYAKERTIAVWEIMDLPNLTSWQRGAFIDKLHDDPSQSSELLSEAKKLNDSQAPK; Engineered PD-L1 binding polypeptide) | no response | bind | 15 nM | 1.9e+06 M⁻¹ s⁻¹ | 0.028 s⁻¹ | no response
Z13398: PD-L1 binding Z variant, 58 amino acid residues, SEQ ID NO:4; tested as ABD fusion or His6-tagged (VDAKYAKERTMATWEIVQLPNLTARQKGAFIWKLHDDPSQSSELLSEAKKLNDSQAPK; Engineered PD-L1 binding polypeptide) | no response | bind | 0.73 nM | 5.1e+06 M⁻¹ s⁻¹ | 0.0037 s⁻¹ | no response
